# This is one part of the list.
# B1: Tamarinin (protein)
# chain: CDDSARAGNIVVYWGQGGSDNSEGSLKEACKSGHYNMIVLQQLIVYDDGRDPDLNLGAHCSDCTKLEEQIKYCQNKDIKILLQIGQVVPTQEDVKDVTKNLSEYLLKNFFSGKSGPLGEVYLNGIDIASVPEGNNLKFDELVEALNDSSTERRIYLSASPLCVYPDYYLNKAIQTEKLDFLFVQFFYQNPCIYTEGNPENLFEAMKTWTKNVPESMIFMALPATPNLDGYIPPRVLNKEILPAVSEASNFAGVMIFDRYFDRFRKYSSKIK
# Columns and labels:
# Test in all cases: glycan array binding signal (z-score within array); higher = stronger binding
# Settings in all cases: glycan notation: IUPAC condensed, linker removed
# [1] = target: GlcNAc(b1-2)Gal(b1-3)GalNAc
# Summary of the method: (§1)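 From the Consortium for Functional Glycomics database, 3228 arrays were curated, keeping only those whose protein sequence was available. Binding is given as a within-array Z-score averaged across arrays sharing a protein sequence and across linkers. Negative Z-scores can be read as non-binding.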
# [2] = target: GlcNAc(b1-2)Man(a1-3)[GlcNAc(b1-2)Man(a1-6)]Man(b1-4)GlcNAc(b1-4)GlcNAc
# Summary of the method: as §1
# [3] = target: GlcNAc(b1-2)Man(a1-3)[GlcNAc(b1-2)Man(a1-6)]Man(b1-4)GlcNAc(b1-4)[Fuc(a1-6)]GlcNAc
# Summary of the method: as §1
# [4] = target: GlcNAc(b1-2)Man(a1-3)[GlcNAc(b1-4)][GlcNAc(b1-2)Man(a1-6)]Man(b1-4)GlcNAc(b1-4)GlcNAc
# Summary of the method: as §1
# [5] = target: GlcNAc(b1-2)Man(a1-3)[GlcNAc(b1-4)][GlcNAc(b1-2)Man(a1-6)]Man(b1-4)GlcNAc(b1-4)[Fuc(a1-6)]GlcNAc
# Summary of the method: as §1
# [6] = target: GlcNAc(b1-2)[GlcNAc(b1-4)]Man(a1-3)[GlcNAc(b1-2)Man(a1-6)]Man(b1-4)GlcNAc(b1-4)GlcNAc
# Summary of the method: as §1
# [7] = target: GlcNAc(b1-2)[GlcNAc(b1-4)]Man(a1-3)[GlcNAc(b1-4)][GlcNAc(b1-2)Man(a1-6)]Man(b1-4)GlcNAc(b1-4)GlcNAc
# Summary of the method: as §1
# [8] = target: GlcNAc(b1-2)[GlcNAc(b1-4)]Man(a1-3)[GlcNAc(b1-4)][GlcNAc(b1-2)[GlcNAc(b1-6)]Man(a1-6)]Man(b1-4)GlcNAc(b1-4)GlcNAc
# Summary of the method: as §1
# [9] = target: GlcNAc(b1-2)[GlcNAc(b1-4)]Man(a1-3)[GlcNAc(b1-4)][GlcNAc(b1-2)[GlcNAc(b1-6)]Man(a1-6)]Man(b1-4)GlcNAc(b1-4)[Fuc(a1-6)]GlcNAc
# Summary of the method: as §1
# [10] = target: GlcNAc(b1-2)[GlcNAc(b1-6)]Man(a1-6)[GlcNAc(b1-2)Man(a1-3)]Man(b1-4)GlcNAc(b1-4)GlcNAc
# Summary of the method: as §1
# [11] = target: GlcNAc(b1-2)[GlcNAc(b1-6)]Man(a1-6)[GlcNAc(b1-2)Man(a1-3)]Man(b1-4)GlcNAc(b1-4)[Fuc(a1-6)]GlcNAc
# Summary of the method: as §1
# [12] = target: GlcNAc(b1-2)[GlcNAc(b1-6)]Man(a1-6)[GlcNAc(b1-4)][GlcNAc(b1-2)Man(a1-3)]Man(b1-4)GlcNAc(b1-4)GlcNAc
# Summary of the method: as §1
# [13] = target: GlcNAc(b1-3)Fuc
# Summary of the method: as §1
# [14] = target: GlcNAc(b1-3)Gal
# Summary of the method: as §1
# [15] = target: GlcNAc(b1-3)Gal(b1-3)GalNAc
# Summary of the method: as §1
# [16] = target: GlcNAc(b1-3)Gal(b1-4)Glc
# Summary of the method: as §1
# [17] = target: GlcNAc(b1-3)Gal(b1-4)GlcNAc
# Summary of the method: as §1
# [18] = target: GlcNAc(b1-3)Gal(b1-4)GlcNAc(b1-2)Man(a1-3)[GlcNAc(b1-3)Gal(b1-4)GlcNAc(b1-2)Man(a1-6)]Man(b1-4)GlcNAc(b1-4)GlcNAc
# Summary of the method: as §1
# [19] = target: GlcNAc(b1-3)Gal(b1-4)GlcNAc(b1-2)Man(a1-3)[GlcNAc(b1-3)Gal(b1-4)GlcNAc(b1-2)Man(a1-6)]Man(b1-4)GlcNAc(b1-4)[Fuc(a1-6)]GlcNAc
# Summary of the method: as §1
# [20] = target: GlcNAc(b1-3)Gal(b1-4)GlcNAc(b1-2)[GlcNAc(b1-3)Gal(b1-4)GlcNAc(b1-6)]Man(a1-6)[GlcNAc(b1-3)Gal(b1-4)GlcNAc(b1-2)Man(a1-3)]Man(b1-4)GlcNAc(b1-4)GlcNAc
# Summary of the method: as §1
# [21] = target: GlcNAc(b1-3)Gal(b1-4)GlcNAc(b1-3)Gal(b1-4)GlcNAc
# Summary of the method: as §1
# [22] = target: GlcNAc(b1-3)Gal(b1-4)GlcNAc(b1-3)Gal(b1-4)GlcNAc(b1-2)Man(a1-3)[GlcNAc(b1-3)Gal(b1-4)GlcNAc(b1-3)Gal(b1-4)GlcNAc(b1-2)Man(a1-6)]Man(b1-4)GlcNAc(b1-4)GlcNAc
# Summary of the method: as §1
# [23] = target: GlcNAc(b1-3)Gal(b1-4)GlcNAc(b1-3)Gal(b1-4)GlcNAc(b1-2)Man(a1-3)[GlcNAc(b1-3)Gal(b1-4)GlcNAc(b1-3)Gal(b1-4)GlcNAc(b1-2)Man(a1-6)]Man(b1-4)GlcNAc(b1-4)[Fuc(a1-6)]GlcNAc
# Summary of the method: as §1
# [24] = target: GlcNAc(b1-3)Gal(b1-4)GlcNAc(b1-3)Gal(b1-4)GlcNAc(b1-2)[GlcNAc(b1-3)Gal(b1-4)GlcNAc(b1-3)Gal(b1-4)GlcNAc(b1-6)]Man(a1-6)[GlcNAc(b1-3)Gal(b1-4)GlcNAc(b1-3)Gal(b1-4)GlcNAc(b1-2)Man(a1-3)]Man(b1-4)GlcNAc(b1-4)[Fuc(a1-6)]GlcNAc
# Summary of the method: as §1
# [25] = target: GlcNAc(b1-3)Gal(b1-4)GlcNAc(b1-3)Gal(b1-4)GlcNAc(b1-3)Gal(b1-4)GlcNAc(b1-2)Man(a1-3)[GlcNAc(b1-3)Gal(b1-4)GlcNAc(b1-3)Gal(b1-4)GlcNAc(b1-3)Gal(b1-4)GlcNAc(b1-2)Man(a1-6)]Man(b1-4)GlcNAc(b1-4)GlcNAc
# Summary of the method: as §1
# [26] = target: GlcNAc(b1-3)Gal(b1-4)GlcNAc(b1-3)Gal(b1-4)GlcNAc(b1-3)Gal(b1-4)GlcNAc(b1-2)Man(a1-3)[GlcNAc(b1-3)Gal(b1-4)GlcNAc(b1-3)Gal(b1-4)GlcNAc(b1-3)Gal(b1-4)GlcNAc(b1-2)Man(a1-6)]Man(b1-4)GlcNAc(b1-4)[Fuc(a1-6)]GlcNAc
# Summary of the method: as §1
# [27] = target: GlcNAc(b1-3)Gal(b1-4)GlcNAc(b1-3)Gal(b1-4)GlcNAc(b1-3)Gal(b1-4)GlcNAc(b1-2)[GlcNAc(b1-3)Gal(b1-4)GlcNAc(b1-3)Gal(b1-4)GlcNAc(b1-3)Gal(b1-4)GlcNAc(b1-6)]Man(a1-6)[GlcNAc(b1-3)Gal(b1-4)GlcNAc(b1-3)Gal(b1-4)GlcNAc(b1-3)Gal(b1-4)GlcNAc(b1-2)Man(a1-3)]Man(b1-4)GlcNAc(b1-4)[Fuc(a1-6)]GlcNAc
# Summary of the method: as §1
# [28] = target: GlcNAc(b1-3)Gal(b1-4)GlcNAc(b1-3)Gal(b1-4)GlcNAc(b1-3)Gal(b1-4)GlcNAc(b1-3)Gal(b1-4)GlcNAc(b1-2)Man(a1-3)[GlcNAc(b1-3)Gal(b1-4)GlcNAc(b1-3)Gal(b1-4)GlcNAc(b1-3)Gal(b1-4)GlcNAc(b1-3)Gal(b1-4)GlcNAc(b1-2)Man(a1-6)]Man(b1-4)GlcNAc(b1-4)GlcNAc
# Summary of the method: as §1
# [29] = target: GlcNAc(b1-3)Gal(b1-4)GlcNAc(b1-3)Gal(b1-4)GlcNAc(b1-3)Gal(b1-4)GlcNAc(b1-3)Gal(b1-4)GlcNAc(b1-2)Man(a1-3)[GlcNAc(b1-3)Gal(b1-4)GlcNAc(b1-3)Gal(b1-4)GlcNAc(b1-3)Gal(b1-4)GlcNAc(b1-3)Gal(b1-4)GlcNAc(b1-2)Man(a1-6)]Man(b1-4)GlcNAc(b1-4)[Fuc(a1-6)]GlcNAc
# Summary of the method: as §1
# [30] = target: GlcNAc(b1-3)Gal(b1-4)GlcNAc(b1-3)Gal(b1-4)GlcNAc(b1-3)Gal(b1-4)GlcNAc(b1-3)Gal(b1-4)GlcNAc(b1-2)[GlcNAc(b1-3)Gal(b1-4)GlcNAc(b1-3)Gal(b1-4)GlcNAc(b1-3)Gal(b1-4)GlcNAc(b1-3)Gal(b1-4)GlcNAc(b1-6)]Man(a1-6)[GlcNAc(b1-3)Gal(b1-4)GlcNAc(b1-3)Gal(b1-4)GlcNAc(b1-3)Gal(b1-4)GlcNAc(b1-3)Gal(b1-4)GlcNAc(b1-2)Man(a1-3)]Man(b1-4)GlcNAc(b1-4)[Fuc(a1-6)]GlcNAc
# Summary of the method: as §1
# [31] = target: GlcNAc(b1-3)Gal(b1-4)GlcNAc(b1-3)Gal(b1-4)GlcNAc(b1-3)GalNAc
# Summary of the method: as §1
# [32] = target: GlcNAc(b1-3)Gal(b1-4)GlcNAc(b1-3)GalNAc
# Summary of the method: as §1
# [33] = target: GlcNAc(b1-3)Gal(b1-4)GlcNAc(b1-3)[GlcNAc(b1-3)Gal(b1-4)GlcNAc(b1-3)]GalNAc
# Summary of the method: as §1
# [34] = target: GlcNAc(b1-3)Gal(b1-4)GlcNAc(b1-6)[Gal(b1-3)]GalNAc
# Summary of the method: as §1
# [35] = target: GlcNAc(b1-3)Gal(b1-4)GlcNAc(b1-6)[GlcNAc(b1-3)Gal(b1-3)]GalNAc
# Summary of the method: as §1
# [36] = target: GlcNAc(b1-3)Gal(b1-4)GlcNAc(b1-6)[GlcNAc(b1-3)]Gal(b1-4)GlcNAc
# Summary of the method: as §1
# [37] = target: GlcNAc(b1-3)GalNAc
# Summary of the method: as §1
binder,measurement,setting,value
B1,glycan array binding signal (z-score),[1],-0.158
same,glycan array binding signal (z-score),[2],-0.317
same,glycan array binding signal (z-score),[3],-0.194
same,glycan array binding signal (z-score),[4],-0.259
same,glycan array binding signal (z-score),[5],-0.526
same,glycan array binding signal (z-score),[6],-0.413
same,glycan array binding signal (z-score),[7],-0.017
same,glycan array binding signal (z-score),[8],-0.199
same,glycan array binding signal (z-score),[9],-0.436
same,glycan array binding signal (z-score),[10],-0.264
same,glycan array binding signal (z-score),[11],0.474
same,glycan array binding signal (z-score),[12],-0.469
same,glycan array binding signal (z-score),[13],-0.324
same,glycan array binding signal (z-score),[14],-0.449
same,glycan array binding signal (z-score),[15],-0.288
same,glycan array binding signal (z-score),[16],-0.18
same,glycan array binding signal (z-score),[17],-0.424
same,glycan array binding signal (z-score),[18],-0.317
same,glycan array binding signal (z-score),[19],-0.176
same,glycan array binding signal (z-score),[20],-0.515
same,glycan array binding signal (z-score),[21],-0.438
same,glycan array binding signal (z-score),[22],0.314
same,glycan array binding signal (z-score),[23],0.122
same,glycan array binding signal (z-score),[24],0.807
same,glycan array binding signal (z-score),[25],-0.183
same,glycan array binding signal (z-score),[26],0.078
same,glycan array binding signal (z-score),[27],0.369
same,glycan array binding signal (z-score),[28],-0.181
same,glycan array binding signal (z-score),[29],-0.061
same,glycan array binding signal (z-score),[30],-0.28
same,glycan array binding signal (z-score),[31],-0.388
same,glycan array binding signal (z-score),[32],-0.411
same,glycan array binding signal (z-score),[33],-0.332
same,glycan array binding signal (z-score),[34],-0.358
same,glycan array binding signal (z-score),[35],-0.102
same,glycan array binding signal (z-score),[36],-0.274
same,glycan array binding signal (z-score),[37],-0.342

# Reference: the supplement of paper PMC8728848
